Experimental data from PubChem BioAssay AID504832 (National Center for Advancing Translational Sciences (NCATS), 2011).
In all, about 310,000 compounds went through this assay and about 18,000 (5.8%) were called active. This list was built around the results that the source calls inconclusive (neither active nor inactive); the mix of calls is not that of the screen. Calls come from the whole dose curve; as a rule, active = well fitted inhibition curve with a large enough effect; inconclusive = small, poorly fitted or top-dose-only effect, or another doubt; inactive = no such curve, though single readings can be large or run the other way. No potency is given beside an inconclusive call; the fits are too rough.

Assay: Primary qHTS for delayed death inhibitors of the malarial parasite plastid, 48 hour incubation
Details: P. falciparum luciferase growth in erythrocytes; series mostly up to 28.7 µM
Procedure, shortened: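 Compounds are pin-transferred into medium, infected erythrocytes (2% hematocrit, 0.1% parasitemia final) are added, and plates sit one parasite generation at 37 C in 5% CO2. Detection reagent is then added and luminescence measured.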
Potency is the fitted concentration of half-maximal effect; tags give direction and shape of the fitted curve.

Row | SMILES | Potency
1 | COc1cccc(/C=N/c2oc(-c3ccccc3)cc2C#N)c1O | inactive
2 | O=C(CCNS(=O)(=O)c1cccc2nonc12)NC1CCCCC1 | inactive
3 | COc1ccc(-c2nc3nc(N)nn3cc2C)cc1F | inactive
4 | COc1ccc(/C=C2\SC(=O)N=C2N)cc1OC | inconclusive [inhibitor, single point]
5 | CC(C)NC(=O)c1ccc(C2SCC(=O)N2Cc2ccccc2)cc1 (stereo not given) | inconclusive [inhibitor, single point]
6 | Cc1ccccc1C(=O)N1CCc2cc(-c3csc(NC(=O)CN4CCCC4)n3)ccc21 | active: 4.15 µM
7 | CCC(=O)N1CCc2cc(S(=O)(=O)NC(Cc3ccccc3)C(=O)NC3CCCC3)ccc21 (stereo not given) | inconclusive [inhibitor, full curve, poor fit]
8 | COc1ccc(CC(C)NCCC(c2ccccc2)c2ccccc2)cc1 (stereo not given) | inconclusive [inhibitor, single point]
9 | O=C(Nc1c(-c2ccccc2)nc2ccccn12)c1cccs1 | inactive
10 | C/C(=N\NC(=O)c1ccc(O)cc1)c1ccc2c(c1)Nc1ccccc1S2 | inconclusive [inhibitor, partial curve]
11 | CCOc1cc(C2NC(=O)N(C)C(C)=C2C(=O)OC)cc(Br)c1O (stereo not given) | active: 13.1 µM
12 | COc1ccc(C[C@H]2CN3C(=NC[C@@H]3C(C)C)N2CCNC(=O)c2ccc(C)c(Br)c2)cc1 | inconclusive [inhibitor, single point]
13 | Cc1cc(S(=O)(=O)/N=C(\N)c2ccc(C(N)=O)cc2)cc(C)c1F | inactive
14 | O=C(CNC(=O)c1cccs1)OCc1c(F)cccc1Cl | inactive
15 | CC(=O)Nc1ccc(NC(=O)CCn2nnc3ccccc32)cc1 | active: 9.28 µM
16 | Cc1ccc([N+](=O)[O-])cc1-c1ccc(/C=C(\C#N)c2[nH]nc(N)c2C#N)o1 | inconclusive [inhibitor, single point]
17 | COC(=O)c1ccc(NC(=O)c2cc(-c3ccncc3)nc3ccccc23)cc1 | inconclusive [inhibitor, single point]
18 | CC(C)CCn1c(CN(C)Cc2ccccc2)nc2c1c(=O)n(C)c(=O)n2C | inconclusive [inhibitor, single point]
19 | CCOC(=O)C1CCN(C(=O)c2cc3c(=O)n4ccccc4nc3n2C)CC1 | inactive
20 | COc1ccccc1Cn1c(SCC#N)nc2cc(C(=O)N3CCC4(CC3)OCCO4)ccc2c1=O | inconclusive [inhibitor, partial curve, poor fit]
21 | c1ccc2[nH]c(SCc3ccc(-c4nnco4)cc3)nc2c1 | inactive
22 | Cc1cc(C)cc(OCC(=O)NNC(=O)c2ccccn2)c1 | active: 5.22 µM
23 | O=C(NCc1ccc(F)cc1)c1cccc(NC2=NC3CS(=O)(=O)CC3S2)c1 (stereo not given) | inactive
24 | CC(C)(C)c1ccc(C(=O)NCCC(=O)Nc2ccc3c(c2)OCCO3)cc1 | inconclusive [inhibitor, single point]

Row | SMILES | Potency
25 | CCOc1ccccc1NC(=O)C1COc2ccccc2O1 (stereo not given) | inconclusive [inhibitor, single point]
26 | O=C(NCc1ccccc1)C1CCC(=O)N(CCCN2CCCC2=O)C1 (stereo not given) | inactive
27 | COC(=O)C1CCN(C(=O)c2ccc3oc(Cc4ccc(Cl)cc4)nc3c2)CC1 | inconclusive [inhibitor, single point]
28 | CCCNC(=O)c1ccc(N2CCC3(CC2)CC(c2ccccc2)=NO3)c(NC(=O)c2ccco2)c1 | inconclusive [inhibitor, full curve]
29 | CCNc1nc(Oc2ccc(C(=O)OCC)cc2)nc(N2CCOCC2)n1 | inconclusive [inhibitor, single point]
30 | c1ccc(-c2oc3ncnc(NCCN4CCOCC4)c3c2-c2ccccc2)cc1 | inconclusive [inhibitor, partial curve]
31 | Cc1cccc(NC(=O)Cn2cc(C=O)c3ccccc32)c1 | inconclusive [inhibitor, single point]
32 | Cc1ccc(Oc2ncccc2/C=N/OCc2ccc(Cl)cc2Cl)cc1 | inconclusive [inhibitor, single point]
33 | COc1ccc(Cn2ccnc2SCC(=O)Nc2cccc(NC(C)=O)c2)cc1 | inconclusive [inhibitor, full curve, poor fit]
34 | Cc1n[nH]c(=O)nc1N/N=C/c1ccc(O)c([N+](=O)[O-])c1 | inconclusive [inhibitor, full curve, poor fit]
35 | Cc1ccc(-n2c3nc(=O)[nH]c(=O)c-3cc3cc([N+](=O)[O-])ccc32)cc1C | inactive
36 | O=C(c1cnccn1)N(Cc1cccs1)C1(C(=O)NC2CCCCC2)CCCCC1 | inconclusive [inhibitor, single point]
37 | COCCCNc1ncnc2c1sc1nc(-c3ccco3)c3c(c12)CC(C)(C)OC3 | inconclusive [inhibitor, single point]
38 | CCN(CC)S(=O)(=O)c1cc(C(=O)Nc2ccccc2C(=O)O)ccc1OC | inconclusive [inhibitor, single point]
39 | Cc1nc([N+](=O)[O-])c(Br)n1CC(=O)c1cccc([N+](=O)[O-])c1 | inconclusive [inhibitor, single point]
40 | COCCOc1ccc(C(F)(F)F)cc1Nc1nc2ccccc2o1 | inactive
41 | CSc1nsc(/C=C/Nc2ccc(C)c(C)c2)c1C#N | inconclusive [inhibitor, full curve, poor fit]
42 | CN(CC(=O)NCc1ccc2c(c1)OCO2)S(=O)(=O)c1ccc(Br)s1 | inactive
43 | CCCCN(C(=O)CCCc1nc2ccccc2s1)c1c(N)n(CC(C)C)c(=O)[nH]c1=O | inconclusive [inhibitor, single point]
44 | COc1ccccc1CNC(=O)C1CCN(S(C)(=O)=O)CC1 | inactive
45 | CCCC(=O)N(CCN1CCOCC1)c1nc2c(C)ccc(C)c2s1 | inconclusive [inhibitor, single point]
46 | OC(c1ccccc1)(c1ccccc1)C1CCN(C(=S)NC2CCCC2)CC1 | inconclusive [inhibitor, partial curve]
47 | CC(=O)c1c(N2CCN(c3ccc(F)cc3)CC2)nc(=S)n(Cc2ccccc2)c1C | inconclusive [inhibitor, partial curve]
48 | COc1ccccc1C(=O)N/C(=C\c1ccc(Br)cc1)C(=O)N1CCCC1 | inactive

Row | SMILES | Potency
49 | COc1cc(/C=C/CN2CCC(Oc3ccc(C(=O)N4CCCC4)cc3)CC2)ccc1O | inconclusive [inhibitor, full curve]
50 | O=C(COC(=O)CC(c1ccccc1)c1ccccc1)NCc1ccc(Cl)cc1 | inconclusive [inhibitor, partial curve, poor fit]
51 | O=C1C2C3CC(C(Br)C3Br)C2C(=O)N1CC1CCCO1 (stereo not given) | inactive
52 | Cc1ccc(C)c(N2CCN(CCCNC(=O)CCC(=O)N3CCOc4ccc(Cl)cc43)CC2)c1 | inconclusive [inhibitor, single point]
53 | COc1ccccc1-n1nnnc1SCC(=O)NC(=O)Cc1ccccc1 | inactive
54 | CCOc1ccc(NC(=S)NCCN2CCN(Cc3ccccc3)CC2)cc1 | inconclusive [inhibitor, single point]
55 | O=C(N/N=C/c1ccc(OC(=O)c2cccc(Br)c2)cc1)c1cccnc1 | inactive
56 | CC1(C)CO[C@@H](CC(=O)O)CN1 | inactive
57 | COCC(=O)N(Cc1nc2sc(C)c(C)c2c(=O)[nH]1)C1CCCCC1 | inconclusive [inhibitor, single point]
58 | COc1ccccc1NC(=O)CCS(=O)(=O)c1ccc2c(c1)NC(=O)C(C)S2 (stereo not given) | inactive
59 | CC(NC(=S)Nc1cccc(F)c1)C(c1cccs1)N1CCOCC1 (stereo not given) | inconclusive [inhibitor, partial curve]
60 | Cc1ccc(CN2C3=NCCN3c3ccccc32)cc1 | inconclusive [inhibitor, single point]
61 | CC(=O)N(C)c1ccc(NC(=S)Nc2ccccc2)cc1 | inactive
62 | Cc1ccc(CNC(=O)CCn2ccc3cc(S(=O)(=O)N4CCCC4)ccc32)cc1 | inconclusive [inhibitor, single point]
63 | Cc1ccc2c(c1)C1CN(C)CCC1N2C(=O)Cc1cccs1 (stereo not given) | inconclusive [inhibitor, single point]
64 | Cc1ccc([N+](=O)[O-])cc1N=C(c1cccc(Br)c1)N1CCOCC1 | inconclusive [inhibitor, partial curve]
65 | O=C(Nc1ccccc1-c1nc2ccccc2[nH]1)c1ccc(N2C(=O)CCC2=O)cc1 | inconclusive [inhibitor, partial curve]
66 | CCOc1ccc(S(=O)(=O)N2CCN(C(=O)CCOc3ccccc3C)CC2)cc1 | active: 10.4 µM
67 | COc1ccccc1/C=C/C=C1\Oc2c(ccc(O)c2CN2CCN(CCO)CC2)C1=O | inactive
68 | CCOC(=O)c1ccc(N2C(=O)CC(NC3CCN(C(=O)c4ccc(F)cc4)CC3)C2=O)cc1 (stereo not given) | inactive
69 | Cc1ccc(S(=O)(=O)Nc2ccc(S(=O)(=O)Nc3ncccn3)cc2)cc1 | inconclusive [inhibitor, single point]
70 | Cc1ccc(NC(=O)CN(C)C(=O)c2cc3ccccc3o2)cc1 | inconclusive [inhibitor, partial curve, poor fit]
